Assay results as given in the antibiotic and cytotoxicity screens of Wong et al. (2023).
Some of the results follow.

system: HepG2; assay: cytotoxicity call (relative viability < 0.9); details: 10 µM

SMILES	cytotoxicity call
C[C@@H]1CN([C@H](C)CO)C(=O)CCCn2nncc2CO[C@@H]1CN(C)C(=O)c1cc(-c2ccccc2)on1	inactive
Cc1noc(C)c1S(=O)(=O)Nc1ccc2c(c1)CC(=O)N([C@@H](C)CO)C[C@H](C)[C@@H](CN(C)Cc1ccc(Oc3ccccc3)cc1)O2	inactive
O=C(Nc1cccc2cccnc12)[C@@H]1[C@H](c2ccc3ccccc3c2)CC(=O)N1C(=O)OCc1ccccc1	inactive
CC(=O)O[C@@H]1[C@@H](OC(C)=O)[C@H](C)O[C@@H](O[C@H]2[C@H](OC/C=C(\C)CC/C=C(\C)CC/C=C(\C)CCC=C(C)C)O[C@H](CO[C@@H]3O[C@@H](C)[C@H](O)[C@@H](O)[C@H]3O)[C@@H](O)[C@@H]2O)[C@@H]1OC(C)=O	inactive
C[C@@H]1CN([C@@H](C)CO)C(=O)c2cc(NC(=O)c3ccncc3)ccc2O[C@H]1CN(C)S(=O)(=O)c1cccs1	inactive
Cc1nnc(CN)o1	inactive
C[C@@H]1CN([C@H](C)CO)C(=O)c2cc(C#CC3(O)CCCC3)cnc2O[C@@H]1CN(C)C(=O)Cc1ccccc1	inactive
C[C@H]1CN([C@@H](C)CO)C(=O)c2cc(NC(=O)Cn3cnnn3)ccc2O[C@H]1CN(C)Cc1ccc(Cl)c(Cl)c1	inactive
C[C@@H]1CN([C@@H](C)CO)C(=O)c2cccc(NC(=O)Nc3ccccc3)c2O[C@@H]1CN(C)Cc1ccc(Cl)c(Cl)c1	inactive
C[C@@H]1CN([C@H](C)CO)C(=O)c2cc(NC(=O)Nc3ccccc3)ccc2O[C@@H]1CN(C)Cc1ccc(C(F)(F)F)cc1	inactive
O=C(NCc1ccncc1)C(=O)NC[C@H]1OCCN1C(=O)c1ccc(Cl)cc1	inactive
C[C@@H]1CN([C@H](C)CO)C(=O)Cc2cc(NS(=O)(=O)c3cn(C)cn3)ccc2O[C@@H]1CN(C)S(=O)(=O)c1cn(C)cn1	inactive
C[C@@H]1CN([C@@H](C)CO)S(=O)(=O)c2ccc(C#Cc3cccnc3)cc2O[C@@H]1CN(C)C(=O)CN(C)C	inactive
Cn1cnc(S(=O)(=O)N2C[C@H](O)COC[C@H]3O[C@H](CC(=O)NC4CCCC4)CC[C@@H]32)c1	inactive
CO[C@@H](CN(C)C(=O)c1ccc2c(c1)OCO2)[C@H](C)CN([C@@H](C)CO)S(=O)(=O)c1ccc(Cl)cc1	inactive
C[C@H]1CCCCO[C@H](CN(C)C(=O)C2CCCCC2)[C@@H](C)CN([C@@H](C)CO)C(=O)c2cc(NC(=O)c3ccccc3)ccc2O1	inactive
CN1CCN(C(=O)C[C@@H]2CC[C@H]3[C@H](COc4ccc(NC(=O)c5cccs5)cc4C(=O)N3C)O2)CC1	inactive
CC#N	inactive
C[C@H]1CCCCO[C@H](CN(C)C(=O)Nc2ccc3c(c2)OCO3)[C@@H](C)CN([C@@H](C)CO)C(=O)c2cc(NC(=O)Cc3ccccc3)ccc2O1	inactive
C[C@@H]1CCCCO[C@@H](CN(C)S(=O)(=O)c2ccc(Cl)cc2)[C@H](C)CN([C@@H](C)CO)C(=O)c2cc(NS(=O)(=O)c3ccccc3)ccc2O1	inactive
COC(=O)c1nnc(N)[nH]1	inactive
C[C@@H]1CN([C@H](C)CO)C(=O)c2cccc(NS(=O)(=O)c3cn(C)cn3)c2O[C@H]1CN(C)C(=O)Nc1ccc(F)cc1	inactive
C[C@H](CO)N1C[C@H](C)[C@H](CN(C)Cc2ccc(Oc3ccccc3)cc2)Oc2ccc(NC(=O)CCCN(C)C)cc2C1=O	active
OC[C@H]1O[C@H](Nc2ccccc2)C[C@@H]1O	inactive
O=C(C[C@H]1C=C[C@@H](NC(=O)C2CC2)[C@H](CO)O1)NCCCN1CCOCC1	inactive
CO[C@@H]1CN(C)C(=O)c2ccc(NC(=O)Nc3ccc(F)cc3)cc2OC[C@@H](C)N(C(=O)c2ccc(F)cc2)C[C@H]1C	inactive
O=S(=O)(NCC[C@@H]1CC[C@@H](NS(=O)(=O)c2ccccc2Cl)[C@@H](CO)O1)c1ccc(F)cc1	inactive
Cc1noc(C)c1NC(=O)N(C)C[C@H]1Oc2c(NC(=O)C3CCOCC3)cccc2C(=O)N([C@H](C)CO)C[C@@H]1C	inactive
C[C@H]1CN([C@@H](C)CO)C(=O)c2cc(NC(=O)Nc3cccc4ccccc34)ccc2O[C@@H]1CN(C)Cc1ccccc1	inactive

system: S. aureus RN4220; assay: growth inhibition call (relative growth <= 0.2); details: 50 µM

SMILES	growth inhibition call
C[C@H]1CN([C@@H](C)CO)C(=O)Cc2cc(NC(=O)Cc3ccccc3)ccc2O[C@H]1CN(C)S(=O)(=O)c1cn(C)cn1	inactive
C[C@@H]1CCCCO[C@H](CN(C)S(=O)(=O)c2cccs2)[C@@H](C)CN([C@H](C)CO)C(=O)c2cc(NS(=O)(=O)c3ccc(Cl)cc3)ccc2O1	inactive
COc1ccc(S(=O)(=O)Nc2ccc3c(c2)C(=O)N([C@@H](C)CO)C[C@H](C)[C@H](CN(C)S(=O)(=O)c2c(C)noc2C)O3)cc1	inactive
C[C@@H]1CN([C@H](C)CO)C(=O)c2cccc(NC(=O)Nc3ccccc3)c2O[C@@H]1CN(C)S(C)(=O)=O	inactive
C[C@@H]1CN([C@@H](C)CO)C(=O)c2cccc(NC(=O)c3cnccn3)c2O[C@H]1CN(C)S(C)(=O)=O	inactive
CN1C(=O)c2cc(NC(=O)c3cccs3)ccc2OC[C@H]2O[C@@H](CC(=O)NCC(F)(F)F)CC[C@H]21	inactive
Cn1cnc(S(=O)(=O)N[C@@H]2C=C[C@H](CC(=O)NCC3CC3)O[C@@H]2CO)c1	inactive
COc1ccc(S(=O)(=O)N(C)C[C@H]2Oc3ccc(NC(=O)C4CC4)cc3CC(=O)N([C@H](C)CO)C[C@@H]2C)cc1	inactive
O=c1nc(C(F)(F)F)[nH]c2nc[nH]c12	inactive
C[C@@H]1CN([C@H](C)CO)C(=O)c2cc(C#Cc3ccccc3F)cnc2O[C@@H]1CN(C)C(=O)Cc1ccncc1	inactive
C[C@H]1CN([C@@H](C)CO)C(=O)c2c(c3ccccc3n2C)-c2ccccc2CO[C@H]1CN(C)Cc1cccc(C(F)(F)F)c1	inactive
C[C@@H]1CN([C@H](C)CO)C(=O)CCCn2nncc2CO[C@@H]1CN(C)C(=O)c1cc(-c2ccccc2)on1	inactive
Cc1noc(C)c1S(=O)(=O)Nc1ccc2c(c1)CC(=O)N([C@@H](C)CO)C[C@H](C)[C@@H](CN(C)Cc1ccc(Oc3ccccc3)cc1)O2	inactive
O=C(Nc1cccc2cccnc12)[C@@H]1[C@H](c2ccc3ccccc3c2)CC(=O)N1C(=O)OCc1ccccc1	inactive
CC(=O)O[C@@H]1[C@@H](OC(C)=O)[C@H](C)O[C@@H](O[C@H]2[C@H](OC/C=C(\C)CC/C=C(\C)CC/C=C(\C)CCC=C(C)C)O[C@H](CO[C@@H]3O[C@@H](C)[C@H](O)[C@@H](O)[C@H]3O)[C@@H](O)[C@@H]2O)[C@@H]1OC(C)=O	inactive
C[C@@H]1CN([C@@H](C)CO)C(=O)c2cc(NC(=O)c3ccncc3)ccc2O[C@H]1CN(C)S(=O)(=O)c1cccs1	inactive
Cc1nnc(CN)o1	inactive
C[C@@H]1CN([C@H](C)CO)C(=O)c2cc(C#CC3(O)CCCC3)cnc2O[C@@H]1CN(C)C(=O)Cc1ccccc1	inactive
C[C@H]1CN([C@@H](C)CO)C(=O)c2cc(NC(=O)Cn3cnnn3)ccc2O[C@H]1CN(C)Cc1ccc(Cl)c(Cl)c1	inactive
C[C@@H]1CN([C@@H](C)CO)C(=O)c2cccc(NC(=O)Nc3ccccc3)c2O[C@@H]1CN(C)Cc1ccc(Cl)c(Cl)c1	inactive

SMILES	growth inhibition call
C[C@@H]1CN([C@H](C)CO)C(=O)c2cc(NC(=O)Nc3ccccc3)ccc2O[C@@H]1CN(C)Cc1ccc(C(F)(F)F)cc1	inactive
O=C(NCc1ccncc1)C(=O)NC[C@H]1OCCN1C(=O)c1ccc(Cl)cc1	inactive
C[C@@H]1CN([C@H](C)CO)C(=O)Cc2cc(NS(=O)(=O)c3cn(C)cn3)ccc2O[C@@H]1CN(C)S(=O)(=O)c1cn(C)cn1	inactive
C[C@@H]1CN([C@@H](C)CO)S(=O)(=O)c2ccc(C#Cc3cccnc3)cc2O[C@@H]1CN(C)C(=O)CN(C)C	inactive
Cn1cnc(S(=O)(=O)N2C[C@H](O)COC[C@H]3O[C@H](CC(=O)NC4CCCC4)CC[C@@H]32)c1	inactive
CO[C@@H](CN(C)C(=O)c1ccc2c(c1)OCO2)[C@H](C)CN([C@@H](C)CO)S(=O)(=O)c1ccc(Cl)cc1	inactive
C[C@H]1CCCCO[C@H](CN(C)C(=O)C2CCCCC2)[C@@H](C)CN([C@@H](C)CO)C(=O)c2cc(NC(=O)c3ccccc3)ccc2O1	inactive
CN1CCN(C(=O)C[C@@H]2CC[C@H]3[C@H](COc4ccc(NC(=O)c5cccs5)cc4C(=O)N3C)O2)CC1	inactive
CC#N	inactive
C[C@H]1CCCCO[C@H](CN(C)C(=O)Nc2ccc3c(c2)OCO3)[C@@H](C)CN([C@@H](C)CO)C(=O)c2cc(NC(=O)Cc3ccccc3)ccc2O1	inactive
C[C@@H]1CCCCO[C@@H](CN(C)S(=O)(=O)c2ccc(Cl)cc2)[C@H](C)CN([C@@H](C)CO)C(=O)c2cc(NS(=O)(=O)c3ccccc3)ccc2O1	inactive
COC(=O)c1nnc(N)[nH]1	inactive
C[C@@H]1CN([C@H](C)CO)C(=O)c2cccc(NS(=O)(=O)c3cn(C)cn3)c2O[C@H]1CN(C)C(=O)Nc1ccc(F)cc1	inactive
C[C@H](CO)N1C[C@H](C)[C@H](CN(C)Cc2ccc(Oc3ccccc3)cc2)Oc2ccc(NC(=O)CCCN(C)C)cc2C1=O	inactive
OC[C@H]1O[C@H](Nc2ccccc2)C[C@@H]1O	inactive
O=C(C[C@H]1C=C[C@@H](NC(=O)C2CC2)[C@H](CO)O1)NCCCN1CCOCC1	inactive
CO[C@@H]1CN(C)C(=O)c2ccc(NC(=O)Nc3ccc(F)cc3)cc2OC[C@@H](C)N(C(=O)c2ccc(F)cc2)C[C@H]1C	inactive
O=S(=O)(NCC[C@@H]1CC[C@@H](NS(=O)(=O)c2ccccc2Cl)[C@@H](CO)O1)c1ccc(F)cc1	inactive
Cc1noc(C)c1NC(=O)N(C)C[C@H]1Oc2c(NC(=O)C3CCOCC3)cccc2C(=O)N([C@H](C)CO)C[C@@H]1C	inactive
C[C@H]1CN([C@@H](C)CO)C(=O)c2cc(NC(=O)Nc3cccc4ccccc34)ccc2O[C@@H]1CN(C)Cc1ccccc1	inactive
